{"source": "ChEMBL document CHEMBL4888484", "about": "“Replenishing the malaria drug discovery pipeline: Screening and hit evaluation of the MMV Hit Generation Library 1 (HGL1) against asexual blood stage Plasmodium falciparum ,using a nano luciferase reporter read-out” (2022)", "note": "In all, about 150,000 compounds went through this assay and about 540 (0.36%) showed an effect of 50% or more. Some of the results follow.", "data": [{"tested_on": "Plasmodium falciparum", "assay": "Primary screen in NF54 nanoGlo assay, in single point, at 2uM, 72h; a lower Z score goes with more inhibition", "assay_type": "functional, Erythrocyte", "conditions": "timepoint 72 hour", "units": {"% Inhibition": "%"}, "values": [{"smiles": "COc1cc(-c2ccno2)ccc1S(=O)(=O)Nc1cccc(F)c1", "% Inhibition": -10, "Z score": 1.67}, {"smiles": "Cc1nc(NC[C@H]2CCCN(C(C)C)C2)cc(-c2cccnc2)n1", "% Inhibition": -3, "Z score": 0.56}, {"smiles": "Cc1ccc(-c2nn(Cn3nc(C)c(Cl)c3C)c(-c3ccc(C)cc3)c2Cl)cc1", "% Inhibition": 25, "Z score": -2.86}, {"smiles": "CO[C@H]1C[C@H]2CN(C(=O)Nc3cccc(C(F)(F)F)c3)CC(=O)N2C1", "% Inhibition": -5, "Z score": 0.72}, {"smiles": "Cc1nc2nc(-c3cccs3)nn2c(C)c1CC(=O)N1CCOCC1", "% Inhibition": 5, "Z score": -0.6}, {"smiles": "COc1ccc(CCc2n[nH]c(C)c2NC(=O)c2ccccc2F)cc1", "% Inhibition": 0, "Z score": 0}, {"smiles": "COc1cc(NC(=O)c2cc(C)n3nc(C)cc3n2)cc(OC)c1OC", "% Inhibition": 10, "Z score": -1.54}, {"smiles": "Cc1ccc(CNC2C3CCOC3C23CCCC3)cn1", "note": "(stereo not given)", "% Inhibition": 6, "Z score": -0.57}, {"smiles": "CCc1nc2c(s1)[C@@H](NCc1cc(C)on1)CCC2", "% Inhibition": -3, "Z score": 0.37}, {"smiles": "CCc1c(C)cc(C(=O)N[C@H]2CCOC[C@@H]2O)c(=O)n1C", "% Inhibition": -8, "Z score": 1.49}, {"smiles": "O=C(C[C@H](c1cccc(C(F)(F)F)c1)c1cn(Cc2ccc(F)cc2)c2ccccc12)NCc1ccco1", "% Inhibition": -10, "Z score": 1.16}, {"smiles": "Cn1ccnc1[C@H]1CCN(C(=O)NCC2CCN(Cc3ccncc3)CC2)C1", "% Inhibition": -7, "Z score": 0.76}, {"smiles": "CN(C)C(=O)c1cncc(N(C)CCCN2CCOCC2)n1", "% Inhibition": -1, "Z score": 0.18}, {"smiles": "CCS(=O)(=O)NC[C@H](C)NCc1csc(N)n1", "% Inhibition": -3, "Z score": 0.36}, {"smiles": "CCc1nc(C)c(C(=O)NC(C)(C)c2nnc(N)s2)o1", "% Inhibition": -19, "Z score": 1.79}, {"smiles": "Cc1nc(NC(=O)CC(C)(C)C)sc1C", "% Inhibition": 9, "Z score": -0.84}, {"smiles": "Cc1cnccc1CCNC1C2CCOC2C12CCCC2", "note": "(stereo not given)", "% Inhibition": 11, "Z score": -1.57}, {"smiles": "CCn1ncc2ccc(N[C@H]3CCOC4(CCOCC4)C3)cc21", "% Inhibition": -4, "Z score": 0.77}, {"smiles": "CC(C)c1nccn1CCN1CCC(O)CC1", "% Inhibition": -3, "Z score": 0.5}, {"smiles": "COc1ccc(-c2noc(COc3ccc(C)nc3C)n2)c(OC)c1OC", "% Inhibition": 11, "Z score": -1.84}, {"smiles": "Cn1nc(CN(C(=O)Nc2ccccc2)C2CCCC2)c2c1CCC2", "% Inhibition": -13, "Z score": 2.52}, {"smiles": "O=C(c1cc2cc(F)ccc2s1)N1CC(Nc2cccnn2)C1", "% Inhibition": -10, "Z score": 1.12}, {"smiles": "C[C@H]1CCCCN1S(=O)(=O)N1CCN(Cc2ccno2)CC1", "% Inhibition": -9, "Z score": 1.01}, {"smiles": "CC1CC(NC(=O)C2(C)CC3CC3C2)C1", "note": "(stereo not given)", "% Inhibition": -12, "Z score": 1.34}, {"smiles": "Cc1csc([C@H](C)NC(=O)CCCN2CCCCC2)n1", "% Inhibition": 9, "Z score": -1.3}, {"smiles": "O=C(C1CCC1)N1CC[C@H](N2C(=O)CNC2=O)C1", "% Inhibition": -12, "Z score": 2.35}, {"smiles": "Nc1nc(-c2cccc3cccnc23)c2cn[nH]c2n1", "% Inhibition": -17, "Z score": 1.5}, {"smiles": "Cc1ccc(-c2nnc(-c3cccc(S(C)(=O)=O)c3)o2)o1", "% Inhibition": -11, "Z score": 1.82}, {"smiles": "O=C1C[C@H]2CC[C@@H](CN1)N2C(=O)c1ccc2[nH]c(=O)[nH]c2c1", "% Inhibition": -9, "Z score": 1.7}, {"smiles": "O=C(Nc1cccnc1)C1CN(C(=O)COc2ccccc2F)C1", "% Inhibition": -5, "Z score": 0.81}, {"smiles": "C[C@@H](CO)NC(=O)Nc1cccc(Cl)c1F", "% Inhibition": -13, "Z score": 1.18}, {"smiles": "CC(C)c1ncc(NC(=O)c2cc(Br)cn2C)cn1", "% Inhibition": 9, "Z score": -1.21}, {"smiles": "Cc1cccc(N2CCN(S(=O)(=O)c3cc(C(=O)N4CCC(C)CC4)cs3)C[C@@H]2C)c1", "% Inhibition": -8, "Z score": 1.44}, {"smiles": "CCC1(CC)CN(C(=O)c2ccc(OC(C)C)cn2)C1", "% Inhibition": -8, "Z score": 1.51}, {"smiles": "CCOc1c(CNC)cc(Br)cc1OC", "% Inhibition": 2, "Z score": -0.27}, {"smiles": "CC[C@@H](COC)NC(=O)c1ccccc1OC", "% Inhibition": -6, "Z score": 0.67}, {"smiles": "Cc1ccccc1Cn1cnc2c1c(=O)n(C1CCCC1)c(=O)n2-c1ccccc1", "% Inhibition": -7, "Z score": 0.85}, {"smiles": "O=S(=O)(Nc1ccc(Cl)cc1-n1cccn1)c1cccc(F)c1", "% Inhibition": -1, "Z score": 0.16}, {"smiles": "O=C(c1cc[nH]n1)N(Cc1ccccc1F)C1CCC1", "% Inhibition": 10, "Z score": -1.54}, {"smiles": "COc1ccc(OC)c(-c2c(C#N)c(O)nc3c2c(C)nn3-c2ccccc2)c1", "% Inhibition": 0, "Z score": -0.07}, {"smiles": "Cc1ccc(-c2nc3cccnc3n2CCCNS(=O)(=O)c2c(C)cc(C)cc2C)cc1", "% Inhibition": 24, "Z score": -3.11}, {"smiles": "CCN(CC)CCN(CCC(F)(F)F)C(=O)[C@H]1CCCN(C(=O)c2ccc(F)cc2)C1", "% Inhibition": -2, "Z score": 0.24}, {"smiles": "COc1ccccc1C[C@H](NC(=O)N1CCCCO1)C(C)C", "% Inhibition": 1, "Z score": -0.05}, {"smiles": "CCn1nc(C(=O)O)c2c1CC[C@H](N(C)Cc1nc3cc(C)ccc3[nH]1)C2", "% Inhibition": -20, "Z score": 2.62}, {"smiles": "COc1ccccc1-c1noc([C@@H]2CCCN2C(=O)c2ccccc2C)n1", "% Inhibition": -5, "Z score": 0.78}, {"smiles": "COc1ccc(CNCC2(N(C)C)CCCCC2)cc1OC[C@@H](O)CN1CCCC1", "% Inhibition": -14, "Z score": 1.88}, {"smiles": "CC1(c2nccc(NC(=O)c3ccoc3C3CC3)n2)CC1", "% Inhibition": 7, "Z score": -1.33}, {"smiles": "O=C1CN(Cc2ccccc2F)C2CS(=O)(=O)CC2N1c1ccc(Br)cc1", "note": "(stereo not given)", "% Inhibition": -13, "Z score": 1.66}, {"smiles": "Cc1cc([C@@H](O)CCNC(=O)c2snnc2C)c(C)o1", "% Inhibition": -27, "Z score": 3.48}, {"smiles": "CN(CC[C@H]1CCCCO1)Cc1ccc2cc(O)ccc2c1", "% Inhibition": -1, "Z score": 0.18}, {"smiles": "Cc1ccnc(NC(=O)c2cccc(-c3nc(-c4ccc(F)cc4)no3)c2)c1", "% Inhibition": -2, "Z score": 0.23}, {"smiles": "C[C@H](NC(=O)N(C)Cc1ccc2c(c1)CN(C)C2)c1cnn(C)c1", "% Inhibition": -4, "Z score": 0.38}, {"smiles": "Cc1cc(C(=O)N2CC(=O)N(C)C2)c2n[nH]cc2c1", "% Inhibition": -10, "Z score": 1.5}, {"smiles": "Cc1nc(CCc2cccnc2)n(C(C)(C)C)n1", "% Inhibition": -2, "Z score": 0.31}, {"smiles": "CCc1nc(C(C)C)ccc1C(=O)NC[C@]1(O)CCOC1", "% Inhibition": 7, "Z score": -0.76}]}]}
